# Experimental data published in PubChem BioAssay (NCATS).
# The shares of active, inactive and inconclusive entries below differ from those in the screen. A call without a number means that no potency is given here. For some of these results: A potency beside an inconclusive call is a rough fit, not a confirmed value. Calls of active or inactive are those of the source. Unless noted, calls come from the whole dose curve; as a rule, active = well fitted curve in the direction sought with a large enough effect; inconclusive = small, poorly fitted or top-dose-only effect, or another doubt; inactive = no such curve, though single readings can be large; an effect the other way counts as inactive or inconclusive.
# Columns and labels:
# [1] = Primary qHTS for inhibitors of nuclear receptor binding SET domain protein 2 (NSD2) in an isogenic RCH-ACV NSD2 p.E1099K mutant (9B) (AID 1645876); settings: activity change, negative = viability loss: at 44.9 µM (top of the series) unless noted; note: nearly all actives have a fitted effect of over 70% in size
# CAOV3 = assay: Primary qHTS to identify gynecologic anti-cancer compounds using libraries of approved drugs and bioactive compounds (AID 1345084); settings: Gynecologic cancer cell panel viability, ATPlite luminescence, 48 h; series mostly up to 57.5 µM; note: nearly all actives have a fitted effect of over 55% in size; note: potency is the fitted concentration of half-maximal effect
# How it was run: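 Cell viability after 48 h drug treatment, ATPlite luminescence readout; five doses.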
# [2] = molecular target: Calcium and integrin-binding protein 1 (Homo sapiens) (UniProt Q99828); assay: Primary qHTS for Identification of Calcium Integrin Binding Protein 1 (CIB1) Competitor (AID 1508620);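 note: GST tagged CIB1 binding a fluorescein labelled alphaIIb integrin peptide tracer; top concentration of the series differs between compounds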
# How it was run: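 Fluorescence polarization competition: GST-tagged CIB1 (1 uM final) preincubated with compound 15 min at room temperature, then FITC-labelled alphaIIb peptide (100 nM final) added. After 15 min at room temperature, polarization read at Ex 480/Em 540.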
# [3] = Primary qHTS for inhibitors of nuclear receptor binding SET domain protein 2 (NSD2) in an RCH-ACV wild type WT cells (2C) (AID 1645877); settings: activity change, negative = cell killing: at 44.9 µM (top of the series) unless noted; note: nearly all actives have a fitted effect of over 70% in size
# [4] = molecular target: Phospholipid hydroperoxide glutathione peroxidase GPX4 (Homo sapiens) (UniProt P36969); assay: Primary qHTS Assay for Inhibitors of Recombinant Selenoprotein Glutathione Peroxidase 4 (GPX4) (AID 1845192); settings: activity change, negative = inhibition: at 50 µM (top of the series) unless noted; note: nearly all actives have a fitted effect of over 65% in size; note: potency is the fitted concentration of half-maximal effect
# How it was run: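 GR-coupled assay: recombinant GPX4 preincubated 30 min with compound at room temperature; final 200 nM GPX4, 1 mM GSH, 0.5 mM cumene hydroperoxide, 0.5 mM NADPH, 100 nM GR, 0.01% BSA, pH 7.5 Tris. NADPH fluorescence (340/450 nm) read at 0 and 15 min.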
# [5] = tested on: Zika virus NS2B-NS3 protease (unlinked complex); assay: Primary screen GU Rhodamine qHTS for Zika virus inhibitors: Unlinked NS2B-NS3 protease assay (AID 1347159); settings: Recombinant ZIKV NS2B-NS3 protease, Rhodamine110 substrate fluorescence; activity change, negative = inhibition: at 107 µM (top of the series); note: nearly all actives have a fitted effect of over 60% in size; note: potency is the fitted concentration of half-maximal effect
# How it was run: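 Percent inhibition derives from the 15-min fluorescence change (ex 480, em 540 nm), normalized to no-enzyme and no-inhibitor wells. Reactions contained 25 nM NS2B-NS3 complex and 1.5 microM substrate in 10 mM Tris-HCl pH 8.0.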
# [6] = tested on: Zika virus NS2B-NS3 protease (linked construct); assay: Primary screen NINDS Rhodamine qHTS for Zika virus inhibitors (AID 1347160); note: nearly all actives have a fitted effect of over 55% in size; note: potency is the fitted concentration of half-maximal effect
# How it was run: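 In 10 mM Tris-HCl pH 8.0 containing 0.01% Tween 20, linked NS2B-NS3 protease (25 nM final) is exposed to test compounds for 15 min. Cleavage of 1.5 microM Rhodamine110 substrate is tracked by fluorescence over 15 min.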
# [7] = Primary fluorescence-based thiol-reactive (MSTI) qHTS assay for identification of artifact compounds. (AID 1845221);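 note: potency is the fitted concentration of half-maximal effect; thiol-reactive compounds lower the probe fluorescence signal; nearly all actives have a fitted effect of over 65% in size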
# How it was run: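 Probe: MSTI 4 uM, PBS pH 7.4, 2% DMSO. Incubation 1 h, RT, light-protected. Readout fluorescence 525/598 nm.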
# [8] = Primary redox qHTS assay for identification of artifact compounds. (AID 1845223); note: potency is the fitted concentration of half-maximal effect
# How it was run: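 Amplex Red (25 uM) and HRP (250 mU/mL) in HBSS, with compounds for 15 min, then 250 uM DTT for 30 min, room temperature, dark. Fluorescence 525/598 nm read; normalized to DMSO and 10 uM DA3003; Hill fit.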
# [9] = molecular target: Cytochrome P450 2C9 (Homo sapiens) (UniProt P11712); assay: Cytochrome P450 family 2 subfamily C member 9 (CYP2C9) small molecule antagonists: luciferase biochemical (cell-free) qHTS assay (AID 1645842; active = well fitted curve in the direction sought with a large enough effect in the repeat runs; inconclusive = weak or mixed curves; inactive = no such curve, though single readings can be large; an effect the other way counts as inactive or inconclusive; note: nearly all actives have a fitted effect of over 55% in size)
# How it was run: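 Luminescence, after 20 min with luciferin detection reagent, reflected CYP2C9 turnover during a 1 h NADPH-driven reaction at 37C. Enzyme-substrate mix contained 0.4% bovine serum albumin and was preincubated with compound 10 min at room temperature.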
# [10] = Confirmatory screen GU Rhodamine qHTS for Zika virus inhibitors qHTS (AID 1347157); note: potency is the fitted concentration of half-maximal effect; nearly all actives have a fitted effect of over 70% in size
# How it was run: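 Compounds, tested up to 114 microM, were incubated for 15 minutes with 25 nM unlinked NS2B-NS3 protease at pH 8.0. Cleavage of 1.5 microM Rhodamine110 substrate was then followed by fluorescence for 15 minutes.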
# [11] = Tertiary RLuc qRT-PCR qHTS assay for Zika virus inhibitors (AID 1347169); note: potency is the fitted concentration of half-maximal effect; nearly all actives have a fitted effect of over 55% in size
# How it was run: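 Vero cells (1,000 per well) plated overnight at 37 degrees C, treated with compound in DMSO, then infected with recombinant ZIKV-RLuc (Cambodian) at MOI 1-2 for 48-72 hrs. Live-cell Renilla luciferase substrate added; luminescence read after 1-1.5 hrs.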
# [12] = molecular target: N-terminal Xaa-Pro-Lys N-methyltransferase 1 (Homo sapiens) (UniProt Q9BV86); assay: Confirmatory qHTS for Inhibitors of N-terminal methyltransferase 1 (NTMT1): MTaseGlo Assay (AID 1645874);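 note: luminescence from SAH made as NTMT1 methylates SPKRIA peptide using SAM; nearly all actives have a fitted effect of over 65% in size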
# How it was run: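 qHTS format: NTMT1 125 nM, SAM 100 uM, peptide SPKRIA 1 uM final; 15 min compound preincubation, 30 min reaction at room temperature. MTase-Glo luminescence.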
# [13] = molecular target: Glutathione peroxidase 1 (Homo sapiens) (UniProt P07203); assay: Primary qHTS Assay for Inhibitors of Recombinant Selenoprotein Glutathione Peroxidase 1 (GPX1) (AID 1845191); note: nearly all actives have a fitted effect of over 65% in size
# How it was run: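 GR-coupled assay: compounds preincubated 30 min at room temperature with GPX1, then reaction started with CHP; final 10 nM GPX1, 1 mM GSH, 0.5 mM CHP, 0.5 mM NADPH, 100 nM GR, 0.01% BSA, pH 7.5 Tris buffer. NADPH fluorescence (340/450 nm) read at 0 and 15 min.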
# [14] = qHTS of pediatric cancer cell lines to identify multiple opportunities for drug repurposing: Primary screen for SK-N-MC cells (AID 1347093); settings: SK-N-MC viability, CellTiter-Glo luminescence, 48 h; activity change, negative = cytotoxic: at 46 µM (top of the series)
# How it was run: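 Metabolically active cells were quantified by ATP-dependent luminescence (CellTiter-Glo, 15 min at room temperature) following 48 h treatment. Cells had been plated at 500-1,000 per well and settled for 5 h beforehand.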
# [15] = Primary qHTS for small molecule stabilizers of the endoplasmic reticulum resident proteome: Secreted ER Calcium Modulated Protein (SERCaMP) assay (AID 1508630); settings: SH-SY5Y GLuc-SERCaMP (Gaussia luciferase released on ER calcium loss) secretion, thapsigargin, luminescence; activity change, negative = inhibition: at 38.4 µM (top of the series) unless noted; note: potency is the fitted concentration of half-maximal effect
# How it was run: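 GLuc-SERCaMP-expressing SH-SY5Y cells, pretreated 16 h with compound, are challenged with thapsigargin to empty ER calcium stores; after 4 h, coelenterazine is added directly to the medium and luminescence is imaged.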
# [16] = A High-Content qHTS Against Drug Library for the Identification of Small Molecules that Inhibit DYT1 Early Onset Primary Dystonia-Associated Cell Pathology (AID 1645839; calls by dose curve)
# How it was run: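 Flp-In T-REx 293 cells with tetracycline-inducible EGFP-delE hTOR1A (WT EGFP-hTOR1A as reference), 800 cells/well; compound added with tetracycline, 48 h at 37 C. Fixed, permeabilized cells imaged; %pathology (punctate TorsinA) primary, cell count counterscreen.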
# Tags give direction and shape of the fitted curve.
# Sequence of UniProt P36969 (P36969 whole entry, looked up): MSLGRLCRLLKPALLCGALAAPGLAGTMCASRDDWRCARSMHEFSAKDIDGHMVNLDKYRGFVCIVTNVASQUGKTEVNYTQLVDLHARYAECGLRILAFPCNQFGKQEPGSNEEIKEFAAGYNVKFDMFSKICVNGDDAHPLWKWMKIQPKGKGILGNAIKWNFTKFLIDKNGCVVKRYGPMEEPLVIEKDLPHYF
# Sequence of UniProt P11712 (P11712 whole entry, looked up): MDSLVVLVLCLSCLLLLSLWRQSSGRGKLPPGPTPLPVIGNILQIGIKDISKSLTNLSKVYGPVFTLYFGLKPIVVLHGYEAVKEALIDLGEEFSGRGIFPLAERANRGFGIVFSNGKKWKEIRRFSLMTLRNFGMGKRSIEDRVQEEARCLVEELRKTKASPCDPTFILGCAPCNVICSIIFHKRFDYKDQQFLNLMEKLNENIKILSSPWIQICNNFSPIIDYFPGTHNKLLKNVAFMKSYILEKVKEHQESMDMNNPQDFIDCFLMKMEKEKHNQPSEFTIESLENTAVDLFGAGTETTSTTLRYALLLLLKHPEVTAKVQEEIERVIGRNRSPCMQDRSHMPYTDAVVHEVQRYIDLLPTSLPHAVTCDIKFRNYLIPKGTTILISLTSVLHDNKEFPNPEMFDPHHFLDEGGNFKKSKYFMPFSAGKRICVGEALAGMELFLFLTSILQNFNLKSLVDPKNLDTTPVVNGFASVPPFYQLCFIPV
# Sequence of UniProt Q9BV86 (Q9BV86 whole entry, looked up): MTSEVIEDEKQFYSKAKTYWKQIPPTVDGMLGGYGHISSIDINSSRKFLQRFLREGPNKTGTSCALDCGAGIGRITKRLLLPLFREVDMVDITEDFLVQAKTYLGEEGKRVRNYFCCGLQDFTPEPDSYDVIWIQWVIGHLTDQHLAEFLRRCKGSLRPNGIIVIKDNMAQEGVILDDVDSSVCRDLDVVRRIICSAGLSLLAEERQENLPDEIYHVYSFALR
# Sequence of UniProt P07203 (P07203 whole entry, looked up): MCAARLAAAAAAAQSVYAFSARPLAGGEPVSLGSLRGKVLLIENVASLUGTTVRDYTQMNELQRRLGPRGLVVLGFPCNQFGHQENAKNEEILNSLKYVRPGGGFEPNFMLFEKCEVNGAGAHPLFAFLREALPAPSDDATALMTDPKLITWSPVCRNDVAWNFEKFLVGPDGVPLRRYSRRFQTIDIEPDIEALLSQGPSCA
# Sequence of UniProt Q99828 (Q99828 whole entry, looked up): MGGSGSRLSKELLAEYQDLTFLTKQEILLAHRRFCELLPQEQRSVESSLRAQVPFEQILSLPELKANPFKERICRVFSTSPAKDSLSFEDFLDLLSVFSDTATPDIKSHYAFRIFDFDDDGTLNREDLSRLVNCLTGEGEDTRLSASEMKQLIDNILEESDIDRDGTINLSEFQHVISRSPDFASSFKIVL
compound,measurement,setting,value
COc1c2c(c(C)c3c1C(=O)OC3)O[C@@]1(C)C[C@@H](O)[C@]34O[C@](OC)(CC[C@]3(C)[C@H]1C2)OC4(C)C,Potency,[1],inactive
same,Potency,CAOV3,inactive
C=C1[C@H]2CC[C@]3(O)[C@@](CC[C@@H]4[C@](C)(C(=O)O)CCC[C@]43C)(C2)[C@H]1OC(=O)/C(C)=C\C,Potency,[1],inactive
same,Potency,CAOV3,inactive
CC1(C)O[C@H]2CC(=O)OC[C@@]23C1=C(O)C(=O)[C@]1(C)C3CC[C@@]2(C)[C@H](c3ccoc3)OC(=O)[C@H]3O[C@]321 (stereo partly drawn),Potency,[2],inactive
same,Potency,[3],inactive
same,Potency,[4],inactive
same,Potency,CAOV3,inactive
CC(=O)NC1CC(=O)C23C(=O)NC(Cc4c[nH]c5ccccc45)C2C(C)=C(C)C(O)C3/C=C/CC(C)/C=C(/C)C(O)C1O (stereo not drawn),Potency,[3],inactive
same,Potency,CAOV3,"inconclusive: 12.6 µM [rising, single point]"
CO[C@@H]1CC[C@H](OC[C@]2(COC(=O)c3ccc(C)[nH]3)[C@H](OC(C)=O)CC[C@@]3(C)[C@@H]4CC=C(C)[C@@H](C5=C(O)C(=O)OC5O)[C@]4(C)CC[C@@H]32)O[C@H]1C (stereo partly drawn),Potency,[5],"inconclusive: 7.08 µM [inhibitor, full curve]"
same,Potency,[6],"inconclusive: 10 µM [inhibitor, single point]"
same,Potency,[7],"inconclusive: 1.26 µM [inhibitor, full curve]"
same,Potency,[8],"inconclusive: 1.41 µM [activator, full curve]"
same,Potency,CAOV3,inactive
CC(C)C1CCC(CO)=CC1/C=C(\CO)C(=O)OCC1(O)CCC(C(C)C)C2C=C(C(=O)O)COC(=O)C21 (stereo not drawn),Potency,[5],"inconclusive: 25.1 µM [inhibitor, partial curve, poor fit]"
same,Potency,[6],inactive
same,Potency,[8],"inconclusive: 4.62 µM [activator, partial curve]"
same,Potency,CAOV3,"inconclusive: 7.94 µM [cytotoxic, single point]"
CCC(CCO[C@@H]1O[C@H](CO[C@H]2OC[C@](O)(CO)[C@H]2O)[C@@H](O)[C@H](O)[C@H]1O)C(C)(C)O (stereo partly drawn),Potency,[6],inactive
same,Potency,CAOV3,"inconclusive: 7.08 µM [rising, partial curve, poor fit]"
CC1C(=O)OCC2=CCN3CCC(OC(=O)C(C)(O)C1(C)O)C23 (stereo not drawn),Potency,[6],inactive
same,Potency,[7],"inconclusive: 9.27 µM [inhibitor, partial curve]"
same,Potency,CAOV3,"inconclusive: 28.2 µM [rising, single point]"
COc1ccc([C@H]2CNC(=O)C2)cc1OC1CCCC1,Potency,[5],inactive
same,Potency,[9],inactive
same,Potency,CAOV3,"inconclusive: 5.62 µM [rising, partial curve]"
COC(=O)CCC(=O)OC[C@]1(C)CCC[C@@]2(C)C3CC[C@]4(C)C=CC3(CCC12)C4 (stereo partly drawn),Potency,[10],"inconclusive: 13.6 µM [inhibitor, partial curve]"
same,Potency,[6],"inconclusive: 2.24 µM [inhibitor, partial curve]"
same,Potency,[11],"inconclusive: 0.203 µM [inhibitor, single point]"
same,Potency,[3],inactive
same,Potency,CAOV3,inactive
O=C(NCCN1CCCC1)c1cc(-c2ccc(CN3CCOCC3)cc2)nc2ccc(F)cc12,Potency,[12],inactive
same,Potency,[4],"inconclusive: 8.81 µM [inhibitor, single point]"
same,Potency,[8],inactive
same,Potency,CAOV3,inactive
C=C1CCC2(C(=O)OC3OC(CO)C(O)C(O)C3O)CCC3(C)C(=CCC4C5(C)CCC(OC6OC(CO)C(OC7OC(C)C(O)C(O)C7O)C(OC7OCC(O)C(O)C7O)C6O)C(C)(C)C5CCC43C)C2C1 (stereo not drawn),Potency,[5],"inconclusive: 15.8 µM [inhibitor, partial curve, poor fit]"
same,Potency,[6],"inconclusive: 6.95 µM [inhibitor, partial curve, poor fit]"
same,outcome,[1],inactive [at 9.23 µM]
same,Potency,[7],"inconclusive: 0.8 µM [inhibitor, full curve]"
same,Potency,[8],"inconclusive: 4.01 µM [activator, partial curve, poor fit]"
same,"activity change, negative = cytotoxicity",CAOV3,inactive: 1.68% [at 11.6 µM]
N[C@@H](CCNCc1ccc(Cl)cc1)C(=O)N1CCCCC1,Potency,[9],inactive
same,Potency,[1],inactive
same,Potency,[4],inactive
same,Potency,CAOV3,inactive
C[C@H]1CC[C@@]2(OC1)O[C@H]1CC3C4CC=C5C[C@H](O)C[C@@H](O[C@@H]6O[C@@H](C)[C@H](O)[C@@H](O)[C@H]6O[C@@H]6O[C@@H](C)[C@H](O)[C@@H](O)[C@H]6O)[C@]5(C)C4CC[C@]3(C)[C@H]1[C@@H]2C (stereo partly drawn),Potency,[5],"inconclusive: 5.01 µM [inhibitor, full curve, poor fit]"
same,Potency,[6],"inconclusive: 12.6 µM [inhibitor, partial curve, poor fit]"
same,Potency,[13],inactive
same,Potency,CAOV3,inactive
CC1(C)CC[C@]2(C(=O)O[C@@H]3O[C@H](CO)[C@@H](O)[C@H](O)[C@H]3O)CC[C@]3(C)C(=CCC4[C@@]5(C)CC[C@H](O[C@@H]6O[C@H](C(=O)O)[C@@H](O)[C@H](O)[C@H]6O)C(C)(C)C5CC[C@]43C)C2C1 (stereo partly drawn),Potency,[5],"inconclusive: 15.8 µM [inhibitor, single point]"
same,Potency,CAOV3,"inconclusive: 1.78 µM [cytotoxic, single point]"
COc1ccc(/C(C)=C/C(=O)O)c(OC)c1,Potency,[14],inactive
same,Potency,[15],"inconclusive: 11.2 µM [inhibitor, partial curve, poor fit]"
same,Potency,[16],inactive
same,Potency,CAOV3,inactive
CN[C@@H]1[C@@H](O)[C@@H](O[C@@H]2[C@@H](O)[C@H](O[C@H]3O[C@@H]([C@@H](C)NC)CC[C@H]3N)[C@@H](N)C[C@H]2N)OC[C@]1(C)O,Potency,[7],"inconclusive: 6.7 µM [inhibitor, full curve, poor fit]"
same,Potency,CAOV3,inactive
